Drawing on ChEMBL document CHEMBL1157539, “Thousands of chemical starting points for antimalarial lead identification” (Nature, 2010), this text covers IFI for 24 compounds.

In all, about 13,000 compounds were measured (“IFI”: median about 4, highest 2% from about 17 on). Some of the results follow.

This assay in a line: GSK_TCMDC: Inhibition Frequency Index (IFI). The number of non-kinase HTS assays where a compound showed > 50 % inhibition, expressed as a percentage of the number of such assays in which the compound was tested (-0 is zero). Type of assay: functional.
Regarding `COc1cc(NC(=O)/C=C/c2cc3ccccc3n2C)ccc1OCCN(C(C)C)C(C)C`, the IFI is 2.07%. Next, `Cc1cc2ccccc2n1CC(=O)N1CC(C(=O)N2CCCCC2)Oc2ccccc21` (centres undefined): 2.86%; `O=C(Nc1ccc(OC2CCN(Cc3ccc(F)cc3)C2)c(Cl)c1)c1ccoc1` (centres undefined): 2.99%. As to `O=C(NCCNc1ccnc2cc(Cl)ccc12)c1ccccc1F`, the IFI stood at 2.9%. Consider `CCNC(=O)Nc1cccc(-c2cccc(-c3nc4cc(C(F)(F)F)ccc4[nH]3)c2)c1`, for which the IFI is 4.04%. For the compound `O=S(=O)(Nc1ccc(CCN2CCC(N3CCCCC3)CC2)cc1)c1cccc(C(F)(F)F)c1`, the IFI was 4.69%.

As for `CCN(CC)S(=O)(=O)c1ccc(C(C)NC(=O)c2ccccc2COc2ccccc2)cc1` (centres undefined), the IFI stood at 2.27%. `CC(=O)/N=C1\N=C(NC(C)=O)NC(C)(C)N1OCCCOc1ccc(Cl)c(Cl)c1` registered an IFI of 3.6%.

With `Oc1ccc(CCNCCCCCCNCCc2ccc(Cl)c3ccccc23)cc1O`, the IFI worked out at 5.34%. For `CN1CCC(C(=O)Nc2ccc(-c3cccc(-c4nc5cc(F)ccc5[nH]4)c3)cc2)CC1`, the IFI is 2.61%. Compound `FC(F)(F)c1ccc(Nc2nnnc3ccccc23)cc1` returned an IFI of -0%. As to `CCCc1cc(OC)c(C[C@H]2c3cc(O)c(Cl)cc3CCN2C)cc1OC`, the IFI is 2.82%. In turn, `CC(=O)c1cccc(NC(=O)NC2CCN(c3ccnc(Nc4ccc(F)cc4)n3)C2)c1` (centres undefined) registered an IFI of 6.15%. Consider `FC(F)(F)c1ccc2[nH]c(-c3cccc(-c4cccc(CNCC5CCCO5)c4)c3)nc2c1` (centres undefined), for which the IFI was determined as 6.8%.

In the case of `O=C(CCc1c[nH]cn1)Nc1ccc(-c2ccc(-c3nc4ccccc4[nH]3)cc2)cc1`, the IFI stood at 3.51%.

For the compound `COc1ccc(Cl)cc1N1CCN(CCCNC(=O)c2ccc(-c3nc4cc(Cl)c(F)cc4[nH]3)c(F)c2)CC1`, the IFI came out at 0.72%.

`O=C(/C=C/c1ccc(Cl)c(Cl)c1)NCCCCCN1CCC(NC(=O)Nc2ccc(Cl)c(Cl)c2)CC1` showed an IFI of 15.8%. Turning to `CCCn1c(Sc2ccc(C#N)c([N+](=O)[O-])c2)nnc1-c1ccc(Cl)cc1`, the IFI was 4.17%. The figure for `CC(C)C1=C[C@H]2C[C@]3(C4OCCO4)[C@@H]4CC[C@@H](C)[C@H]4C[C@@]2(COCc2cccc(C#N)c2)[C@]13C(=O)OC(c1ccccc1)c1ccccc1` is 2.33%. Compound `COc1ccc2nccc(N3CCC(CCNCc4ccc5c(n4)NC(=O)CS5)CC3)c2c1` came in with an IFI of 8.89%. Next, `CCOCc1cnc(C)nc1CNC(=O)c1c(C)[nH]c2ccc(C)cc12`: 1.47%; `Cc1cc(N2CCCC2)nc(Nc2ccc(NC(=O)C(C)C)cc2)n1`: 7.84%. `NC1CCN(c2cnn(Cc3cccc(NC(=O)Nc4ccc(-c5ccccc5)cc4)c3)c(=O)c2Cl)CC1`: the IFI is 8.84%. Consider `O=C(Nc1cc(C(F)(F)F)cc(C(F)(F)F)c1)Nc1cc(C(F)(F)F)cc(C(F)(F)F)c1`, for which the IFI came to 1.47%.
